Measurements reported in paper PMC10726135.
The list shows a part of the results. At the low end of the ranking the order means little. The protein was read in a cell extract, so binding may be indirect.

biological target: T1, HNF4alpha2 (COS-7 nuclear extract) (UniProt P41235); experiment: protein-binding microarray; conditions: COS-7 nuclear extract on double-stranded Agilent 4x180k PBM; binding buffer, salt, pH and temperature not given; high values mean tight binding; double strand, one strand shown; sequences stand for … in …GCCTAGGGAGATTAGAGTATCGGTCGA
T1 sequence: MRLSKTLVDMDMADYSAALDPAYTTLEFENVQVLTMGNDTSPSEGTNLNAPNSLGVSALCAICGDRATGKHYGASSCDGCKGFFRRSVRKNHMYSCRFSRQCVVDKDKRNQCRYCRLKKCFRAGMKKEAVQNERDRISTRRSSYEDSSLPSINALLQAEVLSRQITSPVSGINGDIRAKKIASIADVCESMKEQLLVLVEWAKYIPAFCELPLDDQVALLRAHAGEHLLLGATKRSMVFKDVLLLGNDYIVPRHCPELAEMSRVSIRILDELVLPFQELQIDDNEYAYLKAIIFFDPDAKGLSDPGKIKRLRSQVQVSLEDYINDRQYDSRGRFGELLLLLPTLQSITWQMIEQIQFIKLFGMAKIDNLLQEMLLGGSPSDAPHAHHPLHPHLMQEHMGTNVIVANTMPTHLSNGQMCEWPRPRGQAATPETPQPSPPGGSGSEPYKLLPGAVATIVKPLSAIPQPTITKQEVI

Sequence | binding signal (log2 normalized intensity)
CTGGGGGAGTTTCCTGCCTGGTCCGCCCTT | 1.42
ATTGGAGAGCATCTTGGACTTGGGACTCTG | 5.78
AGCCTGTTCCGACCTTAGTACTCTGCCATG | 2.37
GCTTGTTCTCTCCCCCAACCCCACCTTCAT | 4.53
AACTGGCTTTAAGAGGAATGCTTTGAGCCA | -1.13
GAGAGGGGGAGTGAAGGTTAGTACTCAGAA | -0.568
GAATATCTCAGCAGCCTGGCTGCTCGCAGT | -1.13
CTGTCCTGGACTTTCCTTTGTTGGGAGACT | 1.19
AAAAAATTACTGACCCTTGCACTGTAAGAT | 3.49
GTTTGACCTTTCACCCAGAAAAGGCTGTAA | 3.7
AGCTGCTAAGTCTTTCCACACAGCCTGTCA | -0.644
TCTGATCCCAATTTATCTTTCCAGATTGTT | 0.501
CTACATAAGGGTAGAGACCTTTGTTTTGTT | 2.18
CTCTAGAGGGCTGCTTATCTAGGATGAGAA | -0.882
TGATCCCCTCTCCTTTGGTGCAAATACCAT | 1.65
AGGAGGAAGGACACTTAGAGATAAGGTAAC | -1.06
TATAAGAAACTGCTCCTGCTTGGGAGAACC | -1.03
CCTTACCTCCATTAACTAACCTTTGAACCA | 6.78
GAGTCCACCACTGACCTTAGACCCTCAGGC | 4.12
GGAAAAAGGGAGATAGGTTAAAATTTATCT | -0.854
GCTCCTAGCCCTGCAGTGTATGACACAGCC | -1.21
GAGGAGTCAAAAGGTGTATGTGGACTTTCA | 4.51
CAGTTACAAACAAAACAAACTAAACACAGT | -1.21
TAGTATGTGCTAGGCATTTTATAGTATTTC | 0.73

Sequence | binding signal (log2 normalized intensity)
TCTCTTCCCAACAGGAGATTACTTCAAGGC | -0.662
GGATGTCTTTTTCTGACCCATGGGTTGAGG | 2.09
GGTATGTACTTTCTTTTGGCTCTCTCTCTT | 1.48
GCTGCTTCTCGTCCCCGCCCGAGCCGAACC | 3.21
CAGGGTTAAGGTTTTGTAACACAGAGGCAG | 0.621
TGCCCTTTGTCCAGGGTGAGAGGGACCCTT | 2.41
CATCAAACACTCACTGGGAGAGAAAGCTAA | -1.19
AACCCAGCAAACCTGTCTCTCTGCATTCCT | -1.07
GTGCAGATTCCACACTGGCTAGATAAGGCT | -1.22
CTTTTATCTTAGGTAATAAGCCTGAATTCT | -0.81
TCACCTTTGCTCTGATCTTTGACTTCTAGT | 3.02
TCATGCTTTCATCTCCCCAACACTTAAAAC | 2.58
TTGCAAAATCCTTAGCAAATAGAGATGCAT | -1.14
AACTGACACTTGTTTGAATTGTGATAATAA | 1.14
AAGCAGAGGAGTGGCCATGATGCCATCTGG | -1.09
TGCAGAGAGAGAGGGAGACAACCTTTGGTC | 4.86
CATACCAGGCAGAGGGTTAACCCCTATTAA | 1.62
GGTTTAGCAAGAATACTGCTGGGTCAGTTT | 1.48
ATCTAAGTGGGTCTAGGTTCTGGGGTGATT | 1.77
CAGTGACCCAAATATGGTCCCTGACCTTAA | 3.36
ACACACCAAAACTCTCTCTCTGTGTCACAT | 0.234
CAGTGACTAGCAGATTCTGTGTGGTAAAAG | 0.592
TCTTGGCAGTGATCAGTGTTGAGAATCCCT | -0.922
ATGAATAACTTGAATTGATTGCCAAGAGGG | -1.15

Sequence | binding signal (log2 normalized intensity)
ACTGGAGCAAAGGTCACTCTTGCTAAGCTT | 4.29
ATCAAAAACCATTTGACAATTTACAGTGTT | 0.409
AAGATTTATCAGGTCTTTCTTTCAGAACAG | 0.622
ACCTTTGAAACATATCCAGAATGTGTTTGC | 1.53
GCCTGAGAATGAGGGGCAGGCTTAGCTGGG | -1.13
AGAAAGCTTTGGACTTTGGGCTGTGTTTTG | 4.64
GTGGGTATTTGGGGAGTTCTTTCTGCCAGA | 0.8
TGCTTTAGGCCTCAAGACAAACAATAGATA | -0.588
AGGCCATTGCCTTTCTCTGTGTGTATGTGT | 2.59
TTAGGGGTTTGTCCAAGAAAAAGGAGCAGA | -0.835
ACTATTCCTTTGTTTAGACTTGGGGCCAAA | 1.24
TGAATATCTATTATTAGGTACAAACATACT | -0.088
AGATCTGGGCAATGTCAACAAATACTGACC | 1.18
GGCAGGATGCATGCACTTCATTGTGCACCC | 1.74
CACAGTAAGAGACTTCACCATCTGCAAGTG | -1.15
GAAAAGAAGGATAGAGAGTTGGGAGGGAAC | -1.05
AAAGACTTGCTCATTGATGAGTGACCTTTG | 6.15
TCAGCCTTCTCCGCGGCGGGCCCTCGACCT | -0.582
AATAGATGGCGCAGCGGGTCAATTAGCTTG | 0.323
CAGCGACTTGGGAGGCTGAGGTGGAAGGAT | -1.27
TGCCCCAGGAATGCCTTTTCTTTCATGTTG | 1.43
TCACCTACTGACCTTTCTCCCTTTTCACAG | 2.86
AGGCAAAGGTGTCAGGACCTTTCTTTATGG | 0.852
GTAAATAACATTGCTGACCCCCTACATAGA | 3.8

Sequence | binding signal (log2 normalized intensity)
GCTAGGCAGGCTCAGAACTACCAATGTTTA | -1.17
AAAGGACATCTCCGAGTCCAGGGATAACAG | 0.635
AAGGTCACTTCGCATTTCCAAAAGAAGAAT | -0.7
CTTCGTCCTTGCCCCTGGCTGGGCCCTGAC | 0.738
CACTTCTCACATCACGTCTCTCTGGGGCCC | 1.14
TCAAAGGTGAGTGGGGAAAGAGCCCCTTTG | -1.2
GAGCGGCCTTCGCACCTGCCTGTCTCACCT | -0.911
AGTCATGTCTTCATGCTTTCAGCCTCTCTG | 0.358
CATGCCTAGGTAAGCCCACTAGGGAATGAA | -1.19
GTTTTTTCTTATTTGCTCTCCTGAGGCAAG | 0.0629
CTTTGCCTGCCCATCCCGTGGACTCTGCCT | 3.75
CTACATTAGCAGCGCCACCAACCATAATTT | 2.19
GCTACACGGGCCTGAAAACTGGAGGCCGCG | -1.14
ATGTTTTTGTGTGAGGGAGAAGTTTTATGG | 2.31
CAGCTGCTGGTCAAAGGGCATTACTTGCTG | 3.19
TAGCTTTAGCCGGACTTTGTCCTTTGATTT | 6.43
TCCTCTCTGAAGGATTTAAATGGAATGACC | 2.41
ATTAGCTGGGGACCCGTCGCTGCTGCACAC | -1.1
TTGGGGAAGAATAGATTCCATAGATAAGAG | -1.24
CTACCTGACCTGGCATACTACAGAAATCTT | -1.05
CCTTCAAATCAGCCAGTGATTCAACTCTGA | 0.879
